# Data: the BET-seq Pho4 binding data (Le et al. 2018)
# The list shows a part of the results. Values were computed here from the reads of four pooled replicates and scatter widely.
# Biological target: T1, Pho4 (S. cerevisiae) (UniProt P07270)
# T1 sequence: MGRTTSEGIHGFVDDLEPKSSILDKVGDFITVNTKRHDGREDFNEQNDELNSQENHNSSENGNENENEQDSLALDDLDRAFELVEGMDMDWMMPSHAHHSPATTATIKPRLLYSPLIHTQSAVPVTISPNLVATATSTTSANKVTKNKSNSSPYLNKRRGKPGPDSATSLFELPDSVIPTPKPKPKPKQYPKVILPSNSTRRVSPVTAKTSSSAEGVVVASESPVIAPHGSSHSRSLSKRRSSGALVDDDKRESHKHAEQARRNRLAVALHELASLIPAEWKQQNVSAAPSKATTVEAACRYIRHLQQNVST
# Experiment: relative binding free energy (BET-seq); higher = weaker binding
# Details: reference: library average
row,Sequence,relative binding free energy [kcal/mol]
1,ATGAGCACGTGTTGCG,0.03
2,GGTATCACGTGTGTCG,0.1
3,GGCTTCACGTGAGTTA,0.53
4,AGTGTCACGTGTTAAG,0.18
5,TTGGTCACGTGTGAGA,0.08
6,TGTCACACGTGGAGGT,0.01
7,TGGGTCACGTGCAGTG,0.05
8,TTAAGCACGTGGTAGA,-0.22
9,ATATGCACGTGAAGGT,0.23
10,TTGGGCACGTGCTTAG,-0.12
11,TTTGTCACGTGTAGAC,0.3
12,AGTCTCACGTGTATAG,0.17
13,CATGTCACGTGAATGG,0.1
14,GTGTGCACGTGGGAGC,-0.06
15,TTAAGCACGTGCTGGT,-0.11
16,CCTGGCACGTGTAGGT,-0.14
17,TTTCACACGTGGTCTG,0.05
18,TGTGTCACGTGCACTG,0.07
19,TTGAGCACGTGTAATT,0.03
20,AGATTCACGTGGAGAT,0.18
21,GTGATCACGTGTCTGG,0.1
22,AGCGGCACGTGTAGAG,-0.09
23,AATAACACGTGGGTGA,-0.18
24,AAGATCACGTGTTTTA,0.16
25,GAGAGCACGTGTGTGG,-0.12
26,TTTATCACGTGTTTTT,0.35

row,Sequence,relative binding free energy [kcal/mol]
1,TTGGTCACGTGCTCGG,-0.08
2,TAGGGCACGTGGTGGC,-0.12
3,ATTGTCACGTGCTCGT,0.14
4,GGGTCCACGTGTTGCG,-0.05
5,TTTGTCACGTGAAATT,0.37
6,TTACTCACGTGGTGTG,0.13
7,TCTTTCACGTGCTGGG,0.31
8,TGATGCACGTGGTAAG,0.04
9,TTTATCACGTGAATCT,0.28
10,TATCGCACGTGCTGGT,-0.05
11,AGTGTCACGTGGTGCT,0.01
12,GCGGTCACGTGGTTTT,0.21
13,AGGGACACGTGACGTG,0.2
14,CGGGTCACGTGGGAGT,0.08
15,GTGCGCACGTGGGGCA,-0.21
16,TGAAACACGTGTTGTC,0.07
17,CGCGGCACGTGTGATG,-0.09
18,TTGGGCACGTGCTAAA,0
19,AGTAGCACGTGCGTGG,-0.19
20,AGGTACACGTGTTTCG,0.02
21,GGCTGCACGTGATAGT,0.19
22,CGATACACGTGGAGTG,-0.03
23,TCTCTCACGTGTGTGT,0.21
24,AGTTTCACGTGTGATT,0.23
25,TGTGACACGTGGCGTA,-0.19
26,GCGTTCACGTGTAATG,0.26

row,Sequence,relative binding free energy [kcal/mol]
1,AAAAGCACGTGTGGGT,-0.03
2,TGATACACGTGAGGAT,0.19
3,GTAGTCACGTGCTAGT,0.03
4,GGCGGCACGTGGCGTG,-0.2
5,TGGGTCACGTGTGCAG,0.2
6,TTGCTCACGTGTTGAG,0.21
7,GAATACACGTGTGGAT,0.11
8,AGGTCCACGTGGAAGG,-0.08
9,TAGATCACGTGCGGGT,-0.04
10,ATTATCACGTGGGGCG,-0.05
11,AAGATCACGTGATGTG,0.18
12,GAATGCACGTGCGGTT,-0.07
13,AGTCGCACGTGGTAGG,-0.19
14,TTTCACACGTGGTTGG,0.04
15,GAAAGCACGTGTTTAT,0.06
16,GACTTCACGTGTTTTA,0.4
17,TTTGGCACGTGTGCAT,-0.08
18,ATAATCACGTGGGGGG,0.05
19,TAGATCACGTGAATTT,0.3
20,TACATCACGTGGTGAG,0.03
21,CGTGGCACGTGGGGGA,-0.19
22,GAATCCACGTGGTGGG,0.14
23,GTTGGCACGTGACGAG,0.06
24,GTTTTCACGTGACGTG,0.45
25,ACATTCACGTGGGTCG,0.24
26,GAAGTCACGTGTTTTG,0.23

row,Sequence,relative binding free energy [kcal/mol]
1,AGGAGCACGTGGTATT,-0.11
2,GGAGTCACGTGGTGGC,0.05
3,GGTAGCACGTGGAATT,0.08
4,TGTCGCACGTGGGACA,-0.11
5,TAGTTCACGTGGTCTG,0.31
6,TGGGCCACGTGTTGAT,-0.17
7,GGCGGCACGTGGAAGA,0.08
8,GGGGCCACGTGTTGTA,-0.07
9,GCTTGCACGTGTTTGT,0.04
10,TGGTTCACGTGGCAGA,0.29
11,ATTGTCACGTGAGCGG,0.27
12,CGTGGCACGTGCAAGG,-0.16
13,ATATTCACGTGAGTCG,0.48
14,TTAAACACGTGAGATG,0.22
15,CATTGCACGTGAGGTT,0.11
16,TTTGCCACGTGTGCTG,-0.11
17,TCTTTCACGTGTGTCG,0.27
18,CAGTGCACGTGGGGGG,-0.27
19,GGTTACACGTGTGATG,0.19
20,GTGGTCACGTGCGAGA,0.2
21,TGTGACACGTGGCTTA,-0.14
22,GTGTACACGTGTTGGT,0.11
23,TATGGCACGTGTGTTC,-0.02
24,GTAAGCACGTGCTGAT,0.08
25,TGCAGCACGTGCGTTT,-0.06
26,GCTGGCACGTGAATGA,0.34

row,Sequence,relative binding free energy [kcal/mol]
1,TGATTCACGTGTAATG,0.2
2,GTCGACACGTGGAGAG,0.2
3,GGGTTCACGTGGTGTT,0.3
4,TCGTTCACGTGGGTTG,0.19
5,GGGATCACGTGATTGG,0.34
6,AGGGTCACGTGCCGTG,0.06
7,GCTTACACGTGTGGTT,0.16
8,TATAACACGTGGGTGT,-0.11
9,GGCGACACGTGTGGTC,0.29
10,AGTGACACGTGATGTA,0.1
11,GGGGGCACGTGCGCGG,-0.27
12,TTCTGCACGTGATGGT,0.22
13,TGGAACACGTGGCGTT,-0.01
14,CTGGTCACGTGTTTCA,0.16
15,ATGCGCACGTGGGTTA,-0.2
16,AATGTCACGTGTAGGT,0.14
17,GGCTGCACGTGATTTA,0.29
18,CTGGGCACGTGTATCG,-0.06
19,GTTAGCACGTGCTTAA,0
20,AAAGGCACGTGCTAGG,-0.18
21,GCTTACACGTGGGGGC,0.02
22,ACGTGCACGTGAGGTG,0.14
23,ATGTGCACGTGTCAGG,-0.07
24,TTACACACGTGTGGAT,0.19
25,CCGGTCACGTGAAGGG,0.24
26,ATGTTCACGTGACGGC,0.67

row,Sequence,relative binding free energy [kcal/mol]
1,GTATTCACGTGAAGTA,0.35
2,GGAATCACGTGATGTG,0.35
3,GAGGACACGTGTTTTT,0.18
4,TTAGGCACGTGTGTAT,-0.06
5,CATATCACGTGTGGAT,0.37
6,GTGGTCACGTGTGCGG,0.14
7,TTTTGCACGTGAATCT,0.05
8,TGTCCCACGTGGGTAG,-0.13
9,TGTTACACGTGTATCG,-0.04
10,ATTTTCACGTGCATTA,0.19
11,GGATTCACGTGAAGCG,0.53
12,TTGTACACGTGCTTAG,0
13,GGAGTCACGTGAGGCG,0.27
14,GAATTCACGTGGGGAG,0.09
15,ACATACACGTGTTTGT,-0.03
16,TTGGACACGTGCATTG,0.08
17,ATTGTCACGTGGATGT,0.17
18,GCATACACGTGGTGGT,0.04
19,AGGTACACGTGTTGTA,0.05
20,GTGTCCACGTGTTGCT,0.01
21,AACTGCACGTGATGGT,0.11
22,GTGCTCACGTGGAAGT,0.19
23,TGTCACACGTGTTTCT,0.11
24,GTTGACACGTGAATGG,0.15
25,GAGGCCACGTGGGGGG,-0.24
26,AAGTTCACGTGAGGGT,0.3

row,Sequence,relative binding free energy [kcal/mol]
1,TGGTCCACGTGAGTGC,0.22
2,TGATACACGTGGGTCA,-0.13
3,TTTAGCACGTGGGGCT,-0.27
4,GCGTTCACGTGCATGG,0.29
5,GGTTGCACGTGGCTAG,-0.06
6,GGATGCACGTGATGGC,0.15
7,TCGTTCACGTGTAAGG,0.34
8,TTCATCACGTGATATT,0.25
9,ATCTGCACGTGTTGTG,0.09
10,TTCGGCACGTGCGGCT,-0.06
11,AATTGCACGTGAGGGG,0.21
12,TAGGCCACGTGGAAGG,0.04
13,GGTAACACGTGTTGTG,0.05
14,AGTAACACGTGTAAGA,0.13
15,GGTGACACGTGTTTGC,0.14
16,ATTCTCACGTGAATTG,0.36
17,TTATTCACGTGTGGAT,0.24
18,GTTTTCACGTGCATAG,0.38
19,ATAGACACGTGCGGTG,0.05
20,TTCGTCACGTGGAATT,0.15
21,TTCGTCACGTGCTGGA,0.1
22,CGTGTCACGTGTATTA,0.01
23,AAAGACACGTGAATGT,0.39
24,TGGAACACGTGAGGTA,0.22
25,ATTCTCACGTGTATGG,0.03
26,GACTTCACGTGGAGGG,0.26

row,Sequence,relative binding free energy [kcal/mol]
1,CGTCGCACGTGGTTTG,-0.1
2,GGCTGCACGTGCGGTG,-0.04
3,CAGAGCACGTGTTGGT,-0.24
4,GGGCTCACGTGGTTTT,0.28
5,TTAATCACGTGGTGAG,0.13
6,TAACACACGTGTGGGT,-0.04
7,GGGGCCACGTGTGCGA,-0.06
8,TATCGCACGTGATGAG,0.06
9,TGTGTCACGTGGGTGT,-0.04
10,GGGTCCACGTGGATGT,0.02
11,AATTACACGTGGGTAT,-0.07
12,CGTTTCACGTGTGTGA,0.13
13,AGGAACACGTGATGTT,0.09
14,TTGAGCACGTGGAAGG,0.1
15,TAGTGCACGTGTGCTG,0.03
16,TCATTCACGTGGAGGA,0.3
17,CCGTGCACGTGTAGGT,0
18,TGTGGCACGTGGTCCT,-0.17
19,CGCATCACGTGTCGGG,0.25
20,TGGTACACGTGTAGGA,0.07
21,GATTACACGTGGATTA,0.27
22,AGATGCACGTGTGTAT,0.02
23,GTAAACACGTGGTATA,0.01
24,CCTTGCACGTGGGTGA,-0.08
25,ATTTACACGTGTGTTC,0.2
26,AGATACACGTGGTTTA,-0.09

row,Sequence,relative binding free energy [kcal/mol]
1,AGCGTCACGTGGGCTG,-0.23
2,TGTTACACGTGAGGGG,0.26
3,TTGAACACGTGATTTA,0.24
4,TCTGACACGTGAGGGG,0.17
5,AAGATCACGTGAAGGT,0.33
6,CTAGTCACGTGGGTTC,-0.06
7,AGTATCACGTGTTGTT,0.23
8,AATGGCACGTGTAACG,0.04
9,ATAAGCACGTGGCGGT,-0.22
10,ATAGCCACGTGTTTTT,0
11,GTGAGCACGTGAGTTA,0.1
12,GTGAACACGTGTGTAT,0.01
13,GAGTGCACGTGACTGT,0.15
14,ACTAGCACGTGGATGT,-0.09
15,AGTAACACGTGGTGTG,-0.07
16,GTTTTCACGTGCTGTT,0.21
17,GTAGTCACGTGGTATA,-0.04
18,TTGTGCACGTGTGATC,0.07
19,GATGTCACGTGATTTT,0.32
20,TGCGGCACGTGGTTTA,-0.19
21,TTGTGCACGTGTGAGC,0.13
22,TAACGCACGTGGTTTG,-0.22
